PubChem BioAssay AID256 (DTP/NCI, 2004)
Several values for one entry are separate records, joined by “and”; a condition that tells them apart may be missing. Equal values may be shown once. Further values from the same series stand in other lists. Toxic doses and inconclusive results are not listed.

Test system: CD2F1 mice, L1210 leukemia ip, survival T/C
Assay: NCI In Vivo Anticancer Drug Screen. Data for tumor model L1210 Leukemia (intraperitoneal) in CD2F1 (CDF1) mice
Details: higher = longer survival
How it was run: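 Activity against a transplanted murine tumor was judged by comparing the compound group with a vehicle group. The outcome in the treated animals was divided by that in the controls.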

## O=C1c2c(O)ccc(O)c2C(=O)c2c(NCCNCCO)ccc(NCCNCCO)c21
endpoint: mean survival time, dose: 0.13 mg/kg/injection, schedule: Q01DX005 (iv), vehicle: clinical formulation
  T/C: 106 % of control
endpoint: mean survival time, dose: 0.13 mg/kg/injection, schedule: Q01DX005 (iv), vehicle: saline
  T/C: 102 % of control
endpoint: mean survival time, dose: 0.13 mg/kg/injection, schedule: Q01DX009 (ip), vehicle: water
  T/C: 118 % of control
endpoint: mean survival time, dose: 0.25 mg/kg/injection, schedule: Q01DX009 (ip), vehicle: saline
  T/C: 291 % of control
endpoint: mean survival time, dose: 0.5 mg/kg/injection, schedule: Q01DX005 (ip), vehicle: water
  T/C: 200 % of control
endpoint: mean survival time, dose: 0.5 mg/kg/injection, schedule: Q01DX009 (ip), vehicle: clinical formulation
  T/C: 320 % of control
endpoint: mean survival time, dose: 0.5 mg/kg/injection, schedule: Q01DX009 (ip), vehicle: saline
  T/C: 285 % of control
endpoint: mean survival time, dose: 0.75 mg/kg/injection, schedule: Q01DX009 (ip), vehicle: saline
  T/C: 276 % of control
endpoint: mean survival time, dose: 1.0 mg/kg/injection, schedule: Q01DX005 (ip), vehicle: water
  T/C: 239 % of control
endpoint: mean survival time, dose: 1.0 mg/kg/injection, schedule: Q01DX005 (iv), vehicle: clinical formulation
  T/C: 286 % of control
endpoint: mean survival time, dose: 1.0 mg/kg/injection, schedule: Q01DX009 (ip), vehicle: clinical formulation
  T/C: 535 % of control
endpoint: mean survival time, dose: 1.0 mg/kg/injection, schedule: Q01DX009 (ip), vehicle: saline
  T/C: 468 % of control
endpoint: mean survival time, dose: 1.0 mg/kg/injection, schedule: Q01DX009 (ip), vehicle: water
  T/C: 157 % of control and 163 % of control
endpoint: mean survival time, dose: 1.5 mg/kg/injection, schedule: Q01DX009 (ip), vehicle: saline
  T/C: 258 % of control and 261 % of control
endpoint: mean survival time, dose: 2.0 mg/kg/injection, schedule: Q01DX005 (ip), vehicle: water
  T/C: 294 % of control
endpoint: mean survival time, dose: 2.0 mg/kg/injection, schedule: Q01DX005 (iv), vehicle: clinical formulation
  T/C: 90 % of control
endpoint: mean survival time, dose: 2.0 mg/kg/injection, schedule: Q01DX009 (ip), vehicle: saline
  T/C: 297 % of control
endpoint: mean survival time, dose: 2.0 mg/kg/injection, schedule: Q01DX009 (ip), vehicle: water
  T/C: 160 % of control and 195 % of control
endpoint: mean survival time, dose: 4.0 mg/kg/injection, schedule: Q01DX009 (ip), vehicle: clinical formulation
  T/C: 86 % of control
endpoint: mean survival time, dose: 4.0 mg/kg/injection, schedule: Q01DX009 (ip), vehicle: saline
  T/C: 89 % of control
endpoint: mean survival time, dose: 4.0 mg/kg/injection, schedule: Q01DX009 (ip), vehicle: water
  T/C: 124 % of control and 107 % of control
endpoint: median survival time, dose: 0.25 mg/kg/injection, schedule: Q01DX009 (ip), vehicle: water
  T/C: 162 % of control and 172 % of control
endpoint: median survival time, dose: 0.5 mg/kg/injection, schedule: Q01DX009 (ip), vehicle: water
  T/C: 261 % of control and 361 % of control
endpoint: median survival time, dose: 1.0 mg/kg/injection, schedule: Q01DX009 (ip), vehicle: water
  T/C: 340 % of control and 361 % of control
endpoint: median survival time, dose: 2.0 mg/kg/injection, schedule: Q01DX009 (ip), vehicle: water
  T/C: 121 % of control and 253 % of control
endpoint: median survival time, dose: 3.0 mg/kg/injection, schedule: Q04DX003 (ip), vehicle: saline
  T/C: 318 % of control
endpoint: median survival time, dose: 4.0 mg/kg/injection, schedule: Q01DX009 (ip), vehicle: water
  T/C: 120 % of control and 89 % of control
endpoint: median survival time, dose: 10.0 mg/kg/injection, schedule: Q01DX001 (iv), vehicle: saline
  T/C: 244 % of control
endpoint: median survival time, dose: 16.7 mg/kg/injection, schedule: Q01DX001 (iv), vehicle: saline
  T/C: 495 % of control
